Assay results published in PubChem BioAssay AID1347428 (National Center for Advancing Translational Sciences (NCATS), 2020).
In all, about 91,000 compounds went through this assay and about 290 (0.32%) were called active. The shares of active, inactive and inconclusive entries below differ from those in the screen. Calls follow the shape of the dose curve; as a rule, active = well fitted inhibition curve with a large enough effect; inconclusive = small, poorly fitted or top-dose-only effect; inactive = no such curve, though single readings can be large or run the other way. Potencies of inconclusive entries are doubtful fits and often do not repeat.

Each compound was assayed against Single-stranded DNA cytosine deaminase (Homo sapiens) (UniProt Q9GZX7) (assay: Primary qHTS assay for inhibitors of Activation Induced Cytidine Deaminase (AID): AID signal). Settings: AID deamination FRET fluorescence, UDG-coupled, 4 h; series mostly up to 115 µM.
Also: nearly all actives have a fitted effect of over 25% in size.
Potency is read from the fitted curve at half-maximal effect; tags tell the direction and shape of the fitted curve.

Chain of UniProt Q9GZX7 (Q9GZX7 whole entry, looked up): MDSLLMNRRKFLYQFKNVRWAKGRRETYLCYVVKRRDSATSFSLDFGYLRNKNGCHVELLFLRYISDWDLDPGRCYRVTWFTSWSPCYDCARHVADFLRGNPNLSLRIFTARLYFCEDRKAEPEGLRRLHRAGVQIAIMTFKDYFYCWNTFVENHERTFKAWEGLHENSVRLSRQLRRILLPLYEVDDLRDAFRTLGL

Row | SMILES | Potency
1 | Cc1cccc(NC(=O)CSc2nc3c(oc4ccccc43)c(=O)n2-c2ccc(F)cc2)c1 | inconclusive: 2.82 µM [inhibitor, full curve, poor fit]
2 | CN(CCCNc1ccccc1)c1nc(-c2ccncc2)nc2ccccc12 | inconclusive: 35.5 µM [inhibitor, partial curve, poor fit]
3 | COc1ccc(S(=O)(=O)N2CCN(CC(=O)Nc3ccc(Cl)c(C(F)(F)F)c3)CC2)cc1 | inconclusive: 25.1 µM [inhibitor, full curve]
4 | O=C(CSc1ncc(CO)n1Cc1ccc(Cl)cc1)NCc1ccc(F)cc1 | inconclusive: 20 µM [inhibitor, partial curve, poor fit]
5 | CCOc1ccc(CNC(=O)c2sc3ncnc(N(C)C4CCCCC4)c3c2C)cc1 | inconclusive: 31.6 µM [inhibitor, full curve]
6 | Cn1nc(-c2ccc(OCC(=O)NC3CCCCC3)cc2)c2ccccc2c1=O | inconclusive: 44.7 µM [inhibitor, partial curve, poor fit]
7 | COc1ccc(-c2[nH]c3ccccc3c2SCCNC(=O)c2ccc(S(=O)(=O)N(C)C)cc2)cc1 | inconclusive: 7.94 µM [inhibitor, full curve, poor fit]
8 | CCN(C(=O)c1cn(-c2ccc(OC)cc2)c(=O)c2ccccc12)c1cccc(Cl)c1 | inconclusive: 89.1 µM [inhibitor, single point]
9 | O=C1CCC/C(=N/NC(=O)c2ccc(Cl)cc2)C1 | inactive
10 | Cc1nn(C)c2c1c(-c1ccccc1)cc(=O)n2Cc1ccc(Cl)cc1 | inconclusive: 28.2 µM [inhibitor, full curve, poor fit]
11 | CCC(C)Sc1c(C(C)C)cnc2c1c(=O)n(C)c(=O)n2C (configuration not stated) | inconclusive: 56.2 µM [inhibitor, partial curve, poor fit]
12 | O=C(NCc1cccc(Br)c1)c1ncoc1-c1cccs1 | inconclusive: 44.7 µM [inhibitor, partial curve, poor fit]
13 | Cc1cccc(Cn2cc(C(=O)c3ccccc3)c(=O)c3cc4c(cc32)OCO4)c1 | inconclusive: 44.7 µM [inhibitor, partial curve, poor fit]
14 | Cc1nc2ccn(Cc3cccs3)c(=O)c2cc1C(=O)NCc1ccccc1 | inconclusive: 56.2 µM [inhibitor, partial curve, poor fit]
15 | COc1cc(/C=C2\N=C(SC)SC2=O)cc(OC)c1OC | inactive
16 | CCOc1ccc(C(=O)c2cn(Cc3ccccc3OC)c3cc4c(cc3c2=O)OCCO4)cc1 | inconclusive: 20 µM [inhibitor, full curve, poor fit]
17 | O=C(/C=C/c1ccc(Cl)cc1)c1ccc(N2CCOCC2)cc1 | inactive
18 | Cc1ccc2oc(C(=O)N(Cc3cccc(F)c3)C3CCS(=O)(=O)C3)c(C)c2c1 (configuration not stated) | inconclusive: 44.7 µM [inhibitor, partial curve]
19 | CCOc1ccc(NC(=O)C2CCN(S(=O)(=O)c3cc(-c4noc(C)n4)ccc3C)CC2)cc1 | inconclusive: 2.82 µM [inhibitor, full curve, poor fit]

Row | SMILES | Potency
20 | Cc1ccccc1Nc1nnc(-c2ccc(C)c(S(=O)(=O)N3CCOCC3)c2)c2ccccc12 | inconclusive: 39.8 µM [inhibitor, single point]
21 | CCc1cccc2sc(N3CCN(C(=O)c4cc5ccccc5cc4OC)CC3)nc12 | inconclusive: 20 µM [inhibitor, full curve, poor fit]
22 | Cc1ccc(-n2nc3c(N4CCCC(C(=O)NCCc5ccccc5)C4)nnc(C)c3c2C)cc1 (configuration not stated) | inconclusive: 100 µM [inhibitor, single point]
23 | O=C(COC(=O)c1ccc2ccccc2n1)NCCc1ccccc1 | inactive
24 | CC(Sc1n[nH]c(-c2cccs2)n1)C(=O)Nc1cc(C(F)(F)F)ccc1Cl (configuration not stated) | inactive
25 | O=C(NCC(c1ccccc1)c1ccccc1)c1nn(-c2ccccc2Cl)nc1CO | inconclusive: 50.1 µM [inhibitor, partial curve, poor fit]
26 | COc1cc(OC)c(N(C)C(=O)c2nn(C)c3c2CSc2ccccc2-3)cc1Cl | active: 44.7 µM
27 | O=C(CCn1cnc2ccccc2c1=O)NCc1ccccc1 | inconclusive: 39.8 µM [inhibitor, single point]
28 | O=S(=O)(c1ccc2[nH]c3c(c2c1)CCCCC3)N1CCN(c2ccccc2)CC1 | inconclusive: 25.1 µM [inhibitor, single point]
29 | Cc1cccc(-n2ncc(C(=O)N3CCN(Cc4ccccc4)CC3)c2C2CCN(C(=O)OC(C)(C)C)CC2)c1 | inconclusive: 89.1 µM [inhibitor, partial curve, poor fit]
30 | Cc1ccc(-n2ncc(C(=O)NCCN3CCCC3)c2C2CCN(C(=O)OC(C)(C)C)CC2)cc1 | inconclusive: 100 µM [inhibitor, partial curve, poor fit]
31 | Cc1oc(-c2cccc(Cl)c2)nc1CN1CCCC(C(=O)NCCc2ccc(Cl)cc2)C1 (configuration not stated) | inconclusive: 20 µM [inhibitor, full curve, poor fit]
32 | O=C(Cn1ncn2nc(-c3cccs3)cc2c1=O)NCc1ccc(Cl)cc1 | inconclusive: 89.1 µM [inhibitor, single point]
33 | CCOC(=O)c1cnc2c(Cl)cc(Cl)cc2c1Nc1cc(C(=O)O)ccc1C | inconclusive: 50.1 µM [inhibitor, partial curve, poor fit]
34 | COc1ccc(S(=O)(=O)N2CCN(Cc3ccc4c(c3)OCO4)CC2)cc1C | inconclusive: 56.2 µM [inhibitor, partial curve, poor fit]
35 | O=C(Nc1cccc2cccnc12)C(c1ccccc1)c1ccccc1 | inactive
36 | Cc1ccc(OCc2nc(-c3ccc(C(=O)N4CCN(c5cccc(C(F)(F)F)c5)CC4)cc3)oc2C)cc1 | inconclusive: 12.6 µM [inhibitor, partial curve, poor fit]
37 | O=C(Nc1ccccc1)N(Cc1c[nH]c2ccccc12)C1CCCCCC1 | inconclusive: 2.82 µM [inhibitor, full curve, poor fit]
